# Assay results as given in paper PMC12136788.
# The list shows a part of the results.
# B1: chr10:74118286:74118577:+|3pUTR|ENSG00000035403|msi1|FALSE|unique (ssRNA)
# RNA: GGGAGUUCUACAGUCCGACGAUCGUAUUCUCAAACACAGUUACACUUGUGCACCCUCUAUCCCAAUAGGCAGACUGGGUUUCUAGCCCAUGGACUUCACAUAAGCUCAGAAUCCAAGUGAACACUAGCCAGACACUCUGCUCUCAACAGAGGAUUGAGCAUCA
# B2: chr9:86945015:86945116:-|3pUTR|ENSG00000180447|msi1|total|mutant (ssRNA)
# RNA: GGGAGUUCUACAGUCCGACGAUCUUGGUUUUGGAUAAGUUUGAGCCCUUGACCUUAAUUUCAUUGCUACCACUCUGAUCUCUCCGCACAUUUCUCCGGAUUAAGGGUCCAAAAAUGCUGAUCUAAGGGGUUGCCAUGGUGUUGCAACAGAGGAUUGAGCAUCA
# B3: chr1:32196422:32196614:+|3pUTR|ENSG00000084652|msi1|total|mutant (ssRNA)
# RNA: GGGAGUUCUACAGUCCGACGAUCACAGUUGUUUCUGUGUCCUGUUCUACCCCCACUCCAGUACAUAACUACUAUGUACUGUGCCGAGCCAUUCUAUAUGCUGAAUGUUCUGCUGUUGCAAACUUGCCAGGGUAUCCGCCAGUGCAACAGAGGAUUGAGCAUCA
# B4: chr10:92030471:92030572:+|3pUTR|ENSG00000095564|unk|FALSE|unique (ssRNA)
# RNA: GGGAGUUCUACAGUCCGACGAUCUAUUUUUUUAUUAACUAUUUAUUUGCUAGUUCCAUAAACCAGCUCUUUAACAUAGCUUAUAGUAAUUGAUAUUUUCUUAGAAUAAGUACAGAGCAAUAUAUCAUUAAAGGGCUAUGAAGGCAACAGAGGAUUGAGCAUCA
# B5: ENSG00000124766:be:win_3351|3pUTR|ENSG00000124766|bound_else_gene|NA|bound_elsewhere_windowed (ssRNA)
# RNA: GGGAGUUCUACAGUCCGACGAUCCCACCCUCCGGCCCCCGUCUUGUAAAAAGGGGAGGAGAAUUAGCCAAACACUGUAAGCUUUUAAGAAAAACAAAGUUUUAAACGAAAUACUGCUCUGUCCAGAGGCUUUAAAACUGGUGCCAACAGAGGAUUGAGCAUCA
# B6: chr12:65247554:65247656:+|3pUTR|ENSG00000174106|unk|FALSE|unique (ssRNA)
# RNA: GGGAGUUCUACAGUCCGACGAUCCAGUAUUUAAUUUGUUUCAGUAAACUUACUUUAUUACUGUUUAUGAUUUCAGAUAAAAAUAGUUGCUGAGUAAAUUUUACUUGUAAUCUACAAUUGGCUUUUUAAAAAUAACCUGUUGAUCAACAGAGGAUUGAGCAUCA
# Target: MSI1 full-length (mouse, UniProt Q61474 1-362)
# Sequence of UniProt Q61474 (Q61474 whole entry): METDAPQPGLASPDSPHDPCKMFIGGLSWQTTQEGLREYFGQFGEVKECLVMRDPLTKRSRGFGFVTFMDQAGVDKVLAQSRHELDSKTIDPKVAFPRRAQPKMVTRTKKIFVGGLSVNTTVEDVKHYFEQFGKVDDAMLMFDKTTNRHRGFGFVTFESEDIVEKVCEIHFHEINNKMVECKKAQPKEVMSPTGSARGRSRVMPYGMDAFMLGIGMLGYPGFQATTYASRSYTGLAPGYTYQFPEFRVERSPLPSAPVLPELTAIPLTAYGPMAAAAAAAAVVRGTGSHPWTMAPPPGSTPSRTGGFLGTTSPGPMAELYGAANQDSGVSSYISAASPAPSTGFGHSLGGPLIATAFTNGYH
# Test: nsRBNS (natural sequence RNA bind-n-seq); RBNS binding buffer (assumed for nsRBNS): 25 mM Tris pH 7.5, 150 mM KCl, 3 mM MgCl2, 0.01% Triton X-100, 500 ug/ml BSA, 20 U/ml SUPERase-In, 4 C; UNK is unkempt and MSI1 is Musashi-1; names of the RNAs are library labels; protein concentration not given here; high values mean tight binding
row,Binder,binding signal [enrichment R]
1,B1,0.284
2,B2,0.429
3,B3,0.319
4,B4,39.5
5,B5,0.735
6,B6,0.451
